# PubChem BioAssay AID1345082 (National Center for Advancing Translational Sciences (NCATS), 2018)
# Out of some 94,000 compounds screened, about 4,000 (4.3%) were called active. The inconclusive results got no clear call from the source; some entries with a clear call stand among them for comparison. The call rests on the fitted dose curve; in most records, active means well fitted inhibition curve with a large enough effect; inconclusive means small, poorly fitted or top-dose-only effect; inactive means no such curve, though single readings can be large or run the other way. Potencies beside an inconclusive call are fits to weak or partial responses and may not hold up.
# Assay: Cytotoxic Profiling in NIH 3T3 Cell Line of Diverse Libraries Using Quantitative High-Throughput Screening; further: nearly all actives have a fitted effect of over 55% in size
# Settings: NIH 3T3 viability, CellTiter-Glo ATP luminescence, 48-72 h; series mostly up to 96.7 µM
# Outline: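 Cells were seeded at 400 per well, treated with pin-transferred compound, and kept 48 or 72 hr at 37 °C before CellTiter-Glo addition and luminescence imaging of cellular ATP.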
# Potency means the concentration at half of the fitted maximal effect; tags describe the fitted curve by direction and shape.
row,Compound,Potency
1,O=C(NC1CCCC1)N1CCC2(C1)C(=O)N(CCc1ccccc1)c1ccccc12 (stereo not drawn),"inconclusive: 50.1 µM [inhibitor, partial curve, poor fit]"
2,Clc1cc(NCC2CCCCCC2)n2nccc2n1,active: 31.6 µM
3,O=C(CCC1CCN(C(=O)c2ccccc2F)CC1)NCC1CCCCC1,"inconclusive: 50.1 µM [inhibitor, partial curve, poor fit]"
4,Cc1ccc(S(=O)(=O)N2CCC(Oc3ncccc3C(=O)N3CCOCC3)C2)cc1F (stereo not drawn),inactive
5,CN(CC1Cc2ccccc2O1)C(=O)c1coc(COc2ccc3c(c2)OCO3)n1 (stereo not drawn),inactive
6,O=C(Cc1c[nH]c2ncc(-c3ccc(F)cc3)cc12)N1CCOCC1,"inconclusive: 56.2 µM [inhibitor, partial curve, poor fit]"
7,O=C(NCc1cccc(C(F)(F)F)c1)c1ccc(N2CC3CC(C2)[C@H]2CCCC(=O)N2C3)nc1 (stereo partly drawn),"inconclusive: 70.8 µM [inhibitor, single point]"
8,CCOc1ncccc1C(=O)N1CCc2[nH]nc(-c3cccc(F)c3)c2C1,inactive
9,CN1c2cc(C(=O)NCc3ccc(OC(F)(F)F)cc3)ccc2C(=O)N2CCCCC21 (stereo not drawn),"inconclusive: 50.1 µM [inhibitor, partial curve, poor fit]"
10,CN1CCN(Cc2ccc(Nc3cnc4ccc(-c5ccccc5)nn34)cc2)CC1,"inconclusive: 22.4 µM [inhibitor, full curve, poor fit]"
11,COc1ccccc1Nc1ccnc(N2CCC[C@H]2C(=O)NC2CCCC2)n1,inactive
12,Cc1cc(C(=O)NCc2cccs2)c2c(C3CCCNC3)noc2n1 (stereo not drawn),inactive
13,CN(C)C(=O)CNC(=O)c1cccc(-c2ccc(C(F)(F)F)cc2)c1,"inconclusive: 44.7 µM [inhibitor, partial curve, poor fit]"
14,CCOC(=O)C1(Cc2ccc(F)cc2F)CCCN(C(=O)Cn2nc(C)cc2C)C1 (stereo not drawn),inactive
15,COc1ccc(F)cc1-c1cccc(C(=O)NCCNC(=O)c2ccc(C(F)(F)F)cc2)c1,"inconclusive: 44.7 µM [inhibitor, partial curve, poor fit]"
16,CC(C)(Oc1nn(Cc2cccc(Cl)c2)c2ccccc12)C(=O)NCCN1CCOCC1,"inconclusive: 50.1 µM [inhibitor, partial curve, poor fit]"
17,O=C(C1CCC1)N1CCC(Oc2ccccc2)C1 (stereo not drawn),inactive
18,O=C(NCc1ccc(Cl)cc1)C1CCCN(c2cnn(Cc3ccccc3)c(=O)c2)C1 (stereo not drawn),"inconclusive: 44.7 µM [inhibitor, partial curve, poor fit]"
19,COc1ccc(C(=O)N2CCN(Cc3ccc(=O)n(C)c3)CC2)cc1F,inactive
20,Cc1cc(C)cc(C(=O)N2[C@@H]3CC[C@H]2CC(NC(=O)c2ccc(F)cc2)C3)c1 (stereo partly drawn),inactive
21,CNC(=O)[C@H]1C[C@]2(CCCCN(CCO)C2=O)N(C(=O)CC(C)(C)C)[C@H]1c1ccccc1,"inconclusive: 79.4 µM [inhibitor, partial curve, poor fit]"

row,Compound,Potency
1,O=C(Cc1ccccn1)N1CCN(c2nccc(Nc3ccccc3Cl)n2)CC1,"inconclusive: 50.1 µM [inhibitor, partial curve, poor fit]"
2,Cn1cc(C(=O)N2CCC(N(Cc3ccccc3)C3CCOCC3)CC2)cn1,inactive
3,COc1ccccc1CN1CCc2nc(C(C)C)nc(-c3ccc(O)cc3)c2C1,"inconclusive: 50.1 µM [inhibitor, partial curve, poor fit]"
4,COc1ccc(-c2noc(CC3CCN(C(=O)c4cc(Cl)ccc4F)CC3)n2)cc1,"inconclusive: 35.5 µM [inhibitor, partial curve, poor fit]"
5,COc1ccc(-c2cc(C(=O)NCC(C)C)c3c(C)nn(-c4ccccc4)c3n2)cc1,"inconclusive: 56.2 µM [inhibitor, partial curve, poor fit]"
6,CN1CCCN(C(=O)Nc2ccc3c(c2)OCCO3)c2ccccc21,"inconclusive: 28.2 µM [inhibitor, partial curve, poor fit]"
7,CC1CN(C(=O)C2CCN(c3nc(-c4ccccc4)nc4c3CCC4)CC2)CCN1 (stereo not drawn),"inconclusive: 35.5 µM [inhibitor, full curve, poor fit]"
8,O=C1NCCCCCCN(C(=O)c2ccco2)[C@H]2C[C@H](c3nc(Cc4ccccc4)no3)C[C@@H]12,"inconclusive: 44.7 µM [inhibitor, partial curve, poor fit]"
9,O=C1CCN(Cc2cccc(OC(F)(F)F)c2)CCCCCCN1,"inconclusive: 44.7 µM [inhibitor, partial curve, poor fit]"
10,CCOC(=O)c1nn(Cc2ccc(OC)cc2)c2c1CN(C(=O)c1ccc3nc[nH]c3c1)CC2,inactive
11,O=C(Nc1ccc(F)cc1)[C@@H]1C[C@@H](c2cccc(C(F)(F)F)c2)N(CC2CCOCC2)C1,active: 25.1 µM
12,Cn1ncc2c(C(=O)NCC(F)(F)F)cc(-c3cccc(C(F)(F)F)c3)nc21,inactive
13,Cc1cccc(-c2nc3ccc(C(=O)NCc4ccc(F)cc4)cc3o2)n1,"inconclusive: 56.2 µM [inhibitor, partial curve, poor fit]"
14,COc1cc2nc(Cl)nc(N3CC4CCC(C3)N4CC(F)(F)F)c2cc1OC,"inconclusive: 22.4 µM [inhibitor, full curve]"
15,Cc1ccc(S(=O)(=O)N(C)C2CCOc3ccccc32)cc1 (stereo not drawn),"inconclusive: 56.2 µM [inhibitor, partial curve, poor fit]"
16,O=C(Nc1cnc(-c2cccc(Cl)c2)nc1)c1ccc(F)cc1Cl,"inconclusive: 44.7 µM [inhibitor, partial curve, poor fit]"
17,O=C(CN1C(=O)NC(c2ccccc2Cl)C2=C1COC2=O)Nc1ccc(Cl)cc1 (stereo not drawn),"inconclusive: 50.1 µM [inhibitor, partial curve, poor fit]"
18,CN1C(=O)C(CC(=O)N2CCN(Cc3cccc(Cl)c3)CC2)=C2CCCCC21 (stereo not drawn),inactive
19,CCc1nn(-c2ccccc2)c(Oc2ccc(C)cc2)c1CCC(=O)N1CCSCC1,"inconclusive: 39.8 µM [inhibitor, partial curve, poor fit]"
20,CC1(C)[C@H]2CC[C@@H](CNC(=O)c3ccccc3)[C@@H]1C2,"inconclusive: 89.1 µM [inhibitor, partial curve]"
21,CCCOC(=O)N1CCCC(C(=O)Nc2ccccc2-c2ccc(OC)cc2)C1 (stereo not drawn),"inconclusive: 56.2 µM [inhibitor, partial curve, poor fit]"

row,Compound,Potency
1,Cc1cc(=O)n(CC(=O)Nc2ccc(C)c(C)c2)c(N2CCC(C)CC2)n1,"inconclusive: 39.8 µM [inhibitor, partial curve]"
2,CCCS(=O)(=O)N1CCC(Cc2nc(-c3ccncc3)n[nH]2)C1 (stereo not drawn),inactive
3,Cc1nn(-c2ccc(C(C)(C)C)cc2)c(C)c1[C@@H]1C=C[C@@H](NC(=O)c2ccc(N(C)C)cc2)C1,"inconclusive: 12.6 µM [inhibitor, full curve, poor fit]"
4,Cn1ncc2c(C(=O)NCc3cccc(C(F)(F)F)c3)cc(-c3ccccc3C(F)(F)F)nc21,"inconclusive: 28.2 µM [inhibitor, partial curve, poor fit]"
5,O=C1CC(c2ccccc2)N(Cc2cn[nH]c2-c2ccc(F)cc2)CCCCCN1 (stereo not drawn),active: 39.8 µM
6,Cc1cccc(CNC(=O)[C@@]23CCCC[C@H]2N(C)C(=O)CC3)c1,inactive
7,O=C(NC1CCN(Cc2cccc(-c3cccs3)c2)CC1)c1ccccc1,inactive
8,O=C(CN1C(=O)C(c2ccccc2)=NC12CCCCC2)NC1CCCCC1,"inconclusive: 50.1 µM [inhibitor, partial curve, poor fit]"
9,CCOC(=O)[C@@H]1CN(C(=O)c2ccc3c(c2)OCCCO3)[C@H]2c3cccc(F)c3O[C@@H]12,"inconclusive: 50.1 µM [inhibitor, partial curve, poor fit]"
10,COc1ccc(-c2nc(C3CC3)nc3c2CCN([S+](=O)([O-])c2c(C)noc2C)CC3)cc1,"inconclusive: 0.891 µM [inhibitor, full curve, poor fit]"
11,CCCS(=O)(=O)N1CCCC(Cn2c(C)nc3cccnc32)C1 (stereo not drawn),"inconclusive: 70.8 µM [inhibitor, partial curve, poor fit]"
12,Cn1cc(-c2cn[nH]c2)c2nc(COc3ccccc3)cn2c1=O,"inconclusive: 44.7 µM [inhibitor, partial curve, poor fit]"
13,O=C(Nc1cccnc1)c1ccc2c(c1)OCCN(Cc1ncccn1)C2,inactive
14,Cn1ncc2c(C(=O)NCc3ccc(F)c(F)c3)cc(-c3ccsc3)nc21,"inconclusive: 14.1 µM [inhibitor, full curve]"
15,COc1ccc(C2(C(=O)N3CC(c4noc(COc5ccc(F)cc5)n4)C3)CC2)cc1,"inconclusive: 50.1 µM [inhibitor, partial curve, poor fit]"
16,CN1C[C@@H](NC(=O)c2cccs2)C[C@H]1c1nc(-c2ccccn2)no1,inactive
17,COc1ccccc1-c1ccc(CN2CCC(N[S+](=O)([O-])c3ccccc3)C2)cc1 (stereo not drawn),active: 31.6 µM
18,O=C(NCc1ccccn1)c1ccc(Cn2ccn3nc4c(c3c2=O)CCCC4)cc1,"inconclusive: 35.5 µM [inhibitor, partial curve, poor fit]"
19,COc1ccc(C(=O)N2CCCN(CCn3nc4n(c3=O)CCCC4)CC2)cc1,inactive
20,COc1ccc(C2(C(=O)N3CCCC(c4[nH]ccc4C(N)=O)C3)CC2)cc1 (stereo not drawn),"inconclusive: 35.5 µM [inhibitor, partial curve]"
21,Cc1noc(C)c1-c1cc2c(cc(-c3ccccc3)n2C)c(-c2cnn(C)c2)n1,active: 11.2 µM
